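Interpolation was linear, between the two tested concentrations surrounding the appropriate level; five concentrations were tested over 48 hours in 96-well plates. The concentration for 50% growth inhibition is given as GI50. TGI marks complete inhibition of growth.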
System: NCI-H322M lung
Assay: inhibition of tumour cell growth, NCI panel, 48 h

CN1C(=O)N(C)C2SC(N/N=C/c3cccs3)=NC21 (stereo not given)
GI50: 25.5 µM
TGI: > 100 µM

COc1ccc2[nH]cc(-c3cc(N)n4nc(-c5c[nH]c6ccccc56)cc4n3)c2c1
GI50: 4.25 µM
TGI: 16.6 µM

CCCS(=O)(=O)c1oc(-c2ccc(F)cc2)nc1S(=O)(=O)c1ccc(F)cc1
GI50: 14.4 µM
TGI: 27.5 µM

O=C(COc1ccc(NC(=O)Nc2ccc(Cl)cc2)cc1)N=Nc1c(O)[nH]c2ccc([N+](=O)[O-])cc12
GI50: 5.26 µM
TGI: 37.7 µM

CCCn1c(=O)c2[nH]c(-c3ccc(OCc4nc5ccc(F)cc5[nH]4)cc3)nc2n(CCC)c1=O
GI50: 22.5 µM
TGI: > 100 µM
